PubChem BioAssay AID1347165 (National Center for Advancing Translational Sciences (NCATS), 2019)
Hit rate of the full screen: of about 220,000 compounds, about 5,700 (2.6%) were called active. The inconclusive results got no clear call from the source; some entries with a clear call stand among them for comparison. Calls come from the whole dose curve; as a rule, active = well fitted inhibition curve with a large enough effect; inconclusive = small, poorly fitted or top-dose-only effect; inactive = no such curve, though single readings can be large or run the other way. Where the call is inconclusive, the potency comes from a doubtful curve fit.

target: Lysine-specific demethylase 5B (Homo sapiens) (UniProt Q9UGL1); assay: Primary screen for KDM5B Histone Demethylases FDH-coupled qHTS; conditions: FDH-coupled NADH fluorescence (FDH is formaldehyde dehydrogenase); activity change, negative = inhibition: at 57.7 µM (top of the series) unless noted; note: nearly all actives have a fitted effect of over 70% in size; for activity change, negative = inhibition: 0% is about no effect
UniProt Q9UGL1, sequence (Q9UGL1 whole entry, looked up): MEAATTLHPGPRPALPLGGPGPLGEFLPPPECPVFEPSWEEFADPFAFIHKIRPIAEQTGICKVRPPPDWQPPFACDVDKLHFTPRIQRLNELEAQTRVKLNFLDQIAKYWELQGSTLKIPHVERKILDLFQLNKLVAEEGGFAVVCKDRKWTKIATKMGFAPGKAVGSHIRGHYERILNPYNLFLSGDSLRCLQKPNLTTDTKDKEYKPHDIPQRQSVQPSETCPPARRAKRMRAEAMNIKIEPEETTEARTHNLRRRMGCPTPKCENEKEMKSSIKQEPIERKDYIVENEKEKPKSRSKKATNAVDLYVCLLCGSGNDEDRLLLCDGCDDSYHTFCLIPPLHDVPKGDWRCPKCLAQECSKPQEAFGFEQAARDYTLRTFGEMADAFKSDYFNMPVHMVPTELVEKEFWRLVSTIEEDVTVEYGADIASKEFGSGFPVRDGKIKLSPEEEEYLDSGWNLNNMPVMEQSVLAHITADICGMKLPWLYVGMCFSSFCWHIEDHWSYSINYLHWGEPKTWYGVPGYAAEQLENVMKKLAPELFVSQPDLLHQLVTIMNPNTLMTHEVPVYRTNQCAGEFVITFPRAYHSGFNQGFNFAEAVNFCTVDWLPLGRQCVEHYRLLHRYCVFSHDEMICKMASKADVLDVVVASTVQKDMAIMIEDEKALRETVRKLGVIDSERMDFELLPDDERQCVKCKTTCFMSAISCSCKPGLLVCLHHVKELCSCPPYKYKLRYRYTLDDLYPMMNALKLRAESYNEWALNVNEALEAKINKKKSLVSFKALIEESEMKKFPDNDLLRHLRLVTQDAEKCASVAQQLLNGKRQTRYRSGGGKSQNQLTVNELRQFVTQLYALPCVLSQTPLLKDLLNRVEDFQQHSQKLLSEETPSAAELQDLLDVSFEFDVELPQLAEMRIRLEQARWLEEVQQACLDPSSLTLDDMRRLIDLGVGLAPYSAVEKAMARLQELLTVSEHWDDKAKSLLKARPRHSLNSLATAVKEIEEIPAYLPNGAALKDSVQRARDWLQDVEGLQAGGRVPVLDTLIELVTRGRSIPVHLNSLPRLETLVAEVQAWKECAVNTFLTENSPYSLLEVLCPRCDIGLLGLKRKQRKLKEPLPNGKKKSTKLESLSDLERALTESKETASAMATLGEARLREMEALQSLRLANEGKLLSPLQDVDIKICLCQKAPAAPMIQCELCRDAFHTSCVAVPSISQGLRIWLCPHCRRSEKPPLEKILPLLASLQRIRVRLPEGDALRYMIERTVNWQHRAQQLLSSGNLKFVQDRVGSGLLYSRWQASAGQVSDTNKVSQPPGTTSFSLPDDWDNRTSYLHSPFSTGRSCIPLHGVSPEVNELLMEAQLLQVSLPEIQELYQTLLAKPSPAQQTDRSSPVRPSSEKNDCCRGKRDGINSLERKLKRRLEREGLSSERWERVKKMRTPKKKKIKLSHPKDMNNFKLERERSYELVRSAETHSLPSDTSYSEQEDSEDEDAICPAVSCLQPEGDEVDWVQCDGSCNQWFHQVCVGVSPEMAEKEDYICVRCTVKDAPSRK
Summary of the method: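 Measured: NADH fluorescence change, 30 min, RT. System: KDM5BΔAP 200 nM final, H3K4me3 peptide, α-KG, Fe(II), ascorbate, NAD⁺ plus FDH, pH 7.5 HEPES. Compounds: titrated, 10 min pre-incubation with enzyme.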
Potency is the fitted concentration of half-maximal effect; tags give direction and shape of the fitted curve.

SMILES	Potency	activity change, negative = inhibition
COc1ccc(Cl)cc1NC(=O)CN(C)C(=O)c1ccc(-c2ccccc2Cl)o1	inconclusive: 39.8 µM [inhibitor, single point]	
COc1ccc(-c2csc(Nc3cccc(C)n3)n2)cc1C	inconclusive: 39.8 µM [inhibitor, single point]	
COc1ccccc1NC(=O)Cn1c(N(C)Cc2ccccc2)nc(C)cc1=O	inconclusive: 22.4 µM [inhibitor, single point]	
Cc1ccc(-c2nc3nc(C)cc(Nc4ccccc4O)n3n2)cc1	inconclusive: 31.6 µM [inhibitor, single point]	
CN(Cc1ccc2c(c1)OCO2)C(=O)C1(C)CCOCC1	inconclusive: 100 µM [inhibitor, partial curve]	
CCOC(=O)NNC(=O)c1ccc(CC)cc1		inactive: 23.1%
COC(=O)c1ccc(Oc2coc3cc(OS(C)(=O)=O)ccc3c2=O)cc1		inactive: 2.82%
Cc1ccc(C(C)NC(=O)NCCNc2ncccc2C#N)cc1 (configuration not stated)	inconclusive: 25.1 µM [inhibitor, partial curve, poor fit]	
CCc1ccc2cccc3c2c1N=CN3C	inconclusive: 25.1 µM [inhibitor, partial curve, poor fit]	
COc1cc2oc(=O)c(CC(=O)NCc3ccc(C)cc3)c(C)c2cc1Cl		inactive: -27%
COc1cc(-c2nc(CC(=O)NC3CCN(Cc4ccccc4)CC3)cs2)cc(OC)c1OC	inconclusive: 28.2 µM [inhibitor, partial curve, poor fit]	
CCN1CCC(CCNC(=O)CCC[C@@H]2[C@H]3CCCN4CCC[C@@H](CN2C(C)=O)[C@@H]34)CC1	inconclusive: 22.4 µM [inhibitor, single point]	
COc1ccc(-c2nc(NCCCN3CCCCC3C)c3ccccc3n2)cc1 (configuration not stated)	inconclusive: 28.2 µM [inhibitor, partial curve, poor fit]	
COCC1CN(C(=O)c2ocnc2C)CC12CCNCC2 (configuration not stated)		inactive: 11.9%
CN(C)C(=O)c1ccc(-c2cc3c(cn2)CN(CCc2ccccc2)CCN3)cc1	inconclusive: 35.5 µM [inhibitor, partial curve, poor fit]	
COc1ccc2c(c1)C(=O)CC(c1ccc3c(c1)OCCO3)O2 (configuration not stated)	inconclusive: 25.1 µM [inhibitor, single point]	
O=C(O)c1cc(NCc2ccc(-c3ccccc3)cc2)ccc1N1CCOCC1	inactive	
CC(Oc1cccc(Cl)c1)C(=O)Nc1ccc2c(N3CCOCC3)ncnc2c1 (configuration not stated)	inconclusive: 39.8 µM [inhibitor, single point]	
CCCc1ccc(C(=O)NNc2cc(Cl)ccc2Cl)cc1	inconclusive: 17.8 µM [inhibitor, partial curve, poor fit]	
O=C1N(CCc2ccccc2)CCOC12CCN(Cc1ccc3c(c1)CCO3)CC2	inconclusive: 22.4 µM [inhibitor, partial curve, poor fit]	
COC(=O)[C@@H]1Cc2c([nH]c3ccccc23)[C@H]2C[C@@H](NCc3ccccc3)C[C@@H](c3ccccc3F)N21	active: 4.47 µM	
Cc1ccc(C(=O)N(CC#N)C2CC2)s1		inactive: 12.3%
CCOc1ccc(CNC(=O)c2ccc3c(c2)c(C)c(C)n3Cc2ccc(Cl)cc2)cc1	inconclusive: 5.01 µM [inhibitor, partial curve, poor fit]	

SMILES	Potency	activity change, negative = inhibition
CC(NC(=O)CCc1c[nH]c2ccccc12)c1ccc(Cl)cc1 (configuration not stated)	inconclusive: 39.8 µM [inhibitor, single point]	
CCN(CC)c1ccc(C(=O)NCc2nnc3cc(-c4nc(C5CC5)no4)ccn23)cc1	inconclusive: 35.5 µM [inhibitor, partial curve, poor fit]	
CCc1ccc2c(c1)cc(S(=O)(=O)c1ccccc1)c(=O)n2CC(=O)N1CCCCC1	inconclusive: 22.4 µM [inhibitor, partial curve, poor fit]	
CCCCn1c(=O)n(CC(=O)Nc2ccc3c(c2)CCC3)c(=O)c2c1ncn2Cc1ccco1		inactive: -18.8%
CC(C)c1noc(C2CCN(C(=O)Cn3ccc4ccccc4c3=O)CC2)n1	inconclusive: 17.8 µM [inhibitor, single point]	
CC(C)Nc1nc(-c2ccc3c(c2)CCC(=O)N3)cs1		inactive: -28.7%
COc1ccc(OC)c(C(=O)COC(=O)COc2cccc(Cl)c2)c1	inconclusive: 39.8 µM [inhibitor, single point]	
CCc1ccc(CNC(=O)c2cc(-c3ccc(Cl)s3)nc3ccccc23)cc1	inconclusive: 14.1 µM [inhibitor, partial curve, poor fit]	
COc1cccc(NC(=O)c2cc3c(N4CCCC4)nc(C)cn3n2)c1	active: 35.5 µM	
Cc1ccc(CCNC(=O)c2ccc(CSCc3ccccc3Cl)o2)cc1	inconclusive: 28.2 µM [inhibitor, single point]	
O=C(Cc1ccc(NC(=O)N2CCSc3ncccc32)cc1)NCCc1ccccc1	inconclusive: 25.1 µM [inhibitor, partial curve, poor fit]	
Cc1ccc2oc(=O)n(CCNC(=O)Nc3ccc(F)cc3)c2c1		inactive: -2.84%
COc1ccc(C2c3c(n(C)c4ccccc34)C(=O)N2CC(=O)Nc2ccccc2F)cc1 (configuration not stated)	inconclusive: 35.5 µM [inhibitor, single point]	
O=C(CC1N=C2c3ccccc3N=C(SCc3ccccc3F)N2C1=O)NCc1ccc2c(c1)OCO2 (configuration not stated)	inconclusive: 8.91 µM [inhibitor, partial curve, poor fit]	
O=C(NCc1ccc(Cl)cc1)c1cnc2sc(N3CCCC3)nn2c1=O	inconclusive: 2 µM [inhibitor, partial curve, poor fit]	
COc1ccc(CCNC(=O)c2ccc3c(c2)N(Cc2cccc(Cl)c2)C(=O)CS3)cc1OC	inconclusive: 1.12 µM [inhibitor, partial curve, poor fit]	
COc1ccccc1NC(=O)C(C)OC(=O)c1nn(C)c(=O)c2ccccc12 (configuration not stated)		inactive: 1.77%
O=C(NCc1cccc(F)c1)c1cccnc1N1CC2CC(C1)[C@H]1CCCC(=O)N1C2 (some centres not stated)	inconclusive: 28.2 µM [inhibitor, single point]	
O=C(C1CCCC1)N1Cc2ccccc2CC2(CCCCN2CC2CCNCC2)C1 (configuration not stated)		inactive: -21.9% [at 115 µM]
CCOc1ccc(NC(=O)c2ccc(Cl)cc2Cl)c2cccnc12		inactive: 6.07%
COc1ccc(-n2c3c(cc(-c4nc(-c5ccc(Cl)cc5)cs4)c2=O)C(=O)CC(C)(C)C3)cc1	inconclusive: 14.1 µM [inhibitor, partial curve, poor fit]	
C=CCN1C(=O)/C(=c2\sc3nc(=O)c(Cc4ccccc4Cl)nn3c2=O)c2ccccc21	inconclusive: 39.8 µM [inhibitor, partial curve, poor fit]	
Cc1ccc2scc(N3CCN(c4ccc(F)cc4)CC3)c(=O)c2c1	inconclusive: 25.1 µM [inhibitor, single point]	

SMILES	Potency	activity change, negative = inhibition
O=C(Cn1c2c(c(=O)n1Cc1ccccc1)CCN(Cc1ccccc1)C2)Nc1ccncn1	inconclusive: 20 µM [inhibitor, partial curve, poor fit]	
O=C1c2[nH]nc(-c3ccc(Br)cc3)c2C(c2cccc(O)c2)N1c1ccc(Cl)cc1 (configuration not stated)	inconclusive: 35.5 µM [inhibitor, partial curve, poor fit]	
CCOc1ccc(C2Cn3nnc(-c4nc(-c5ccc(F)cc5)no4)c3CO2)cc1 (configuration not stated)	inconclusive: 28.2 µM [inhibitor, single point]	
COC(=O)C1(NC(=O)c2ccc3c(c2)OCCCO3)CCCCC1		inactive: -11.5%
Cc1ccc(-c2noc(-c3ccc(Br)cc3)n2)cc1		inactive: 5.64%
Cc1ccc(NCC(=O)Nc2cc(C(F)(F)F)ccc2-n2cncn2)c(F)c1		inactive: 5.56%
Cc1c(Cl)cccc1NC(=O)Nc1cc2c(cc1Oc1ccccc1)n(C)c(=O)n2C	inconclusive: 39.8 µM [inhibitor, partial curve, poor fit]	
O=C(Cc1cccn1-c1cccc(Cl)c1)NCCCN1CCCC1	inconclusive: 17.8 µM [inhibitor, partial curve, poor fit]	
CN1CCC2(CCCN(Cc3cc4n(n3)CCCNC4)C2)C1 (configuration not stated)	inconclusive: 7.94 µM [inhibitor, partial curve]	
O=C(NCCc1ccccc1)c1ccc2c(c1)OCO2		inactive: -4.29%
O=C(CCc1nc2ccc(Cl)cc2[nH]1)N1CCCC(Cc2nc(C3CCOCC3)no2)C1 (configuration not stated)		inactive: 9.12%
CN1c2cc(C(=O)Nc3cccc(OC(F)(F)F)c3)ccc2C(=O)N2CCCC21 (configuration not stated)	inconclusive: 39.8 µM [inhibitor, single point]	
C=CC[C@H]1CC=C[C@H](CC=C)N1		inactive: 13.2%
COc1cc(CN2CCN(c3ncccc3C#N)CC2CCO)cc(OC)c1 (configuration not stated)	inconclusive: 28.2 µM [inhibitor, single point]	
Cc1cc(-c2cc3c(cn2)CN(Cc2c[nH]c4ccccc24)CCN3)ccn1		inactive: -25.8% [at 86.2 µM]
Cc1nc(NC2CCCCC2)ncc1C(=O)O	active: 31.6 µM	
CN1CCCCCC(O)c2cc(C(=O)NCCc3ccccn3)ccc21 (configuration not stated)	inconclusive: 20 µM [inhibitor, partial curve, poor fit]	
CCN1CCC2(CCC1=O)CN(Cc1nc3c(cnn3C)c(=O)[nH]1)CCN2C (configuration not stated)	inconclusive: 35.5 µM [inhibitor, partial curve, poor fit]	
CCc1noc(CN2CCN(Cc3cc(C)no3)CC2)n1		inactive: -9.03%
COCCCNc1ccc2nnc(-c3ccc(C)cn3)n2n1	active: 39.8 µM	
COc1cccc(Nc2ncc3c(n2)C(C)(C(=O)NCc2ccc4c(c2)OCO4)CC3)c1 (configuration not stated)	inconclusive: 44.7 µM [inhibitor, single point]	
